Patent US10299477B2 (priority 2015, dated 2019)

Columns and labels:
Assay type in all cases: in vivo
[1] = test system: Blumeria graminis f sp. hordei; test: Test Example D: Powdery mildew on barley; conditions: for Test D control value (powdery mildew on barley): preventive, control value class; for Test D (control value class, powdery mildew on barley): in vivo
From the text: [Test Example D] Powdery Mildew on Barley
After the sprayed dilutions were dried, conidia of Blumeria graminis f sp. hordei were inoculated to the plants by shaking off.

[2] = test system: Plasmopara viticola; test: Test Example G: Downy mildew on vine; conditions: for Test G control value (downy mildew on vine): 250 ppm spray (2.5 ml/pot), preventive, control value class; for Test G control value: 250 ppm sprayed before inoculation; for Test G (control value class): 250 ppm spray; for Test G (control value class, downy mildew on vine): 250 ppm, sprayed 2.5 ml/pot before inoculation
From the text: [Test Example G] Downy Mildew on Vine
Seeds of a test plant (grape variety: Neomuscat) were planted followed by cultivating until three to four first leaves appeared. […] After the sprayed dilutions were dried, a zoosporangia suspension (1-2×10^4 zoosporangia/ml) of Plasmopara viticola was inoculated to the plants by spraying.

[3] = test system: Puccinia recondita; test: Test Example E: Brown rust on wheat; conditions: for Test E control value (brown rust on wheat): preventive, control value class; for Test E (control value class, brown rust on wheat): in vivo
From the text: [Test Example E] Brown Rust on Wheat

[4] = test system: Alternaia brassicicola; test: Test Example C: Alternaria sooty spot on cabbage; conditions: for Test C control value (Alternaria sooty spot on cabbage): preventive, control value class; for Test C control value / Test C (control value class): Alternaria sooty spot on cabbage; for Test C (control value class, Alternaria sooty spot on cabbage): in vivo
From the text: [Test Example C] Alternaria Sooty Spot on Cabbage
Seeds of a test plant (cabbage variety: Shikidori) were planted followed by cultivating until the cotyledons extended.

[5] = test system: Botrytis cinerea; test: Test Example B: Gray mold on tomato; conditions: for Test B control value (gray mold on tomato): preventive, control value class; for Test B (control value class, gray mold on tomato): in vivo
From the text: [Test Example B] Gray Mold on Tomato
Seeds of a test plant (tomato variety: Oogata Fukuju) were planted followed by cultivating until three to five first leaves (true leaves) appeared.

[6] = Downy mildew on vine, 7-10 days after inoculation
[7] = Powdery mildew on barley, control value=100{1-(n/3)}
[8] = Downy mildew on vine, 2.5 ml/pot, evaluated 7-10 days after inoculation
[9] = Brown rust on wheat, control value=100{1-(n/3)}
[10] = Gray mold on tomato, control value=100{1-(n/3)}
[11] = powdery mildew on barley, 250 ppm spray
[12] = downy mildew on vine, Plasmopara viticola, 7-10 days after inoculation
[13] = brown rust on wheat, Puccinia recondita, 250 ppm spray
[14] = gray mold on tomato, Botrytis cinerea, 250 ppm spray
[15] = evaluated 7-10 days after inoculation

Q: Which results are given for `CCCCCOc1ccc(Cl)c(-c2ccc(=O)n(C)c2-c2c(F)cccc2F)c1` [Compound 255]?
A: Test D control value (powdery mildew on barley) ([1]; 250 ppm spray): L (L shows 50% or less of control values); Test G control value (downy mildew on vine) ([2]; 7-10 days after inoculation): L (L shows 50% or less of control values); Test E control value (brown rust on wheat) ([3]; 250 ppm spray): L (L shows 50% or less of control values); Test C control value (Alternaria sooty spot on cabbage) ([4]; 250 ppm spray): H (H shows more than 50% of control values); Test B control value (gray mold on tomato) ([5]; 250 ppm spray): L (L shows 50% or less of control values)

Q: `CCn1c(-c2c(F)cccc2F)c(-c2cc(OCOC)ccc2Cl)cc(Br)c1=O` [Compound 126] was tested. Which “Test D control value” ([1]; Powdery mildew on barley) did it give?
A: H (H shows more than 50% of control values)

Q: What about the “Test G control value” [2, 6] of the same compound?
A: H (H shows more than 50% of control values)

Q: And the “Test E control value” ([3]; Brown rust on wheat)?
A: H (H shows more than 50% of control values)

Q: And the “Test C control value” [4]?
A: H (H shows more than 50% of control values)

Q: What about the “Test B control value” ([5]; Gray mold on tomato) of the same compound?
A: H (H shows more than 50% of control values)

Q: Which results are given for `CCn1c(-c2c(F)cc(F)cc2F)c(-c2cc(F)cc(F)c2)cc(Br)c1=O` [Compound 797]?
A: Test D (control value class) [1, 7]: H (H shows more than 50% of control values); Test G (control value class) [2, 8]: L (L shows 50% or less of control values); Test E (control value class) [3, 9]: H (H shows more than 50% of control values); Test C (control value class) ([4]; control value=100{1-(n/3)}): H (H shows more than 50% of control values); Test B (control value class) [5, 10]: H (H shows more than 50% of control values)

Q: How did the “Test D control value (powdery mildew on barley)” value ([1]; 250 ppm spray) turn out when `CCn1c(-c2c(F)cccc2F)c(-c2cc(F)ccc2Cl)cc(Cl)c1=O` [Compound 360] was run?
A: H (H shows more than 50% of control values)

Q: What about the “Test G control value (downy mildew on vine)” value ([2]; 7-10 days after inoculation) of the same compound?
A: L (L shows 50% or less of control values)

Q: And the “Test E control value (brown rust on wheat)” value ([3]; 250 ppm spray)?
A: H (H shows more than 50% of control values)

Q: What about the “Test C control value (Alternaria sooty spot on cabbage)” value ([4]; 250 ppm spray) of the same compound?
A: H (H shows more than 50% of control values)

Q: What about the “Test B control value (gray mold on tomato)” value ([5]; 250 ppm spray) of the same compound?
A: H (H shows more than 50% of control values)

Q: `CCn1c(-c2c(F)cccc2F)c(-c2cccc(Cl)c2Cl)cc(Cl)c1=O` [Compound 350] was tested. Which “Test D control value (powdery mildew on barley)” value ([1]; 250 ppm spray) did it give?
A: H (H shows more than 50% of control values)

Q: What about the “Test G control value (downy mildew on vine)” value ([2]; 7-10 days after inoculation) of the same compound?
A: L (L shows 50% or less of control values)

Q: What about the “Test E control value (brown rust on wheat)” value ([3]; 250 ppm spray) of the same compound?
A: H (H shows more than 50% of control values)

Q: And the “Test C control value (Alternaria sooty spot on cabbage)” value ([4]; 250 ppm spray)?
A: H (H shows more than 50% of control values)

Q: What about the “Test B control value (gray mold on tomato)” value ([5]; 250 ppm spray) of the same compound?
A: H (H shows more than 50% of control values)

Q: With `CCn1c(-c2c(F)cc(F)cc2F)c(-c2cc(F)ccc2Cl)cc(Br)c1=O` [Compound 381, 3-bromo-5-(2-chloro-5-fluorophenyl)-1-ethyl-6-(2,4,6-trifluorophenyl)pyridine-2(1H)-one] as the compound, how does the “Test D (control value class)” value [1, 11] read?
A: H (H shows more than 50% of control values)

Q: What about the “Test G (control value class)” value [2, 12] of the same compound?
A: L (L shows 50% or less of control values)

Q: What about the “Test E (control value class)” value [3, 13] of the same compound?
A: H (H shows more than 50% of control values)

Q: And the “Test C (control value class)” value ([4]; 250 ppm spray)?
A: H (H shows more than 50% of control values)

Q: What about the “Test B (control value class)” value [5, 14] of the same compound?
A: H (H shows more than 50% of control values)

Q: With `CCn1c(-c2c(F)cc(OC)cc2F)c(-c2cc(F)cc(F)c2Cl)ccc1=O` [Compound 665] as the compound, how does the “Test D (control value class, powdery mildew on barley)” value [1] read?
A: H (H shows more than 50% of control values)

Q: What about the “Test G (control value class, downy mildew on vine)” value [2, 15] of the same compound?
A: L (L shows 50% or less of control values)

Q: What about the “Test E (control value class, brown rust on wheat)” value [3] of the same compound?
A: H (H shows more than 50% of control values)

Q: And the “Test C (control value class, Alternaria sooty spot on cabbage)” value [4]?
A: H (H shows more than 50% of control values)

Q: What about the “Test B (control value class, gray mold on tomato)” value [5] of the same compound?
A: H (H shows more than 50% of control values)

Q: How did the “Test D (control value class)” value [1, 7] turn out when `COc1cc(F)c(-c2c(-c3cc(F)ccc3Cl)ccc(=O)n2C)c(F)c1` [Compound 760] was run?
A: H (H shows more than 50% of control values)

Q: What about the “Test G (control value class)” value [2, 8] of the same compound?
A: L (L shows 50% or less of control values)

Q: What about the “Test E (control value class)” value [3, 9] of the same compound?
A: H (H shows more than 50% of control values)

Q: What about the “Test C (control value class)” value ([4]; control value=100{1-(n/3)}) of the same compound?
A: H (H shows more than 50% of control values)

Q: And the “Test B (control value class)” value [5, 10]?
A: H (H shows more than 50% of control values)

Q: Which results are given for `CCn1c(-c2c(F)cccc2F)c(-c2ccccc2C)cc(Cl)c1=O` [Compound 161]?
A: Test D control value ([1]; Powdery mildew on barley): H (H shows more than 50% of control values); Test G control value [2, 6]: L (L shows 50% or less of control values); Test E control value ([3]; Brown rust on wheat): H (H shows more than 50% of control values); Test C control value [4]: H (H shows more than 50% of control values); Test B control value ([5]; Gray mold on tomato): H (H shows more than 50% of control values)

Q: For `C#CCn1c(-c2c(F)cccc2F)c(-c2cc(OC)ccc2Cl)ccc1=O` [Compound 458], which “Test D (control value class)” value [1, 11] is on record?
A: L (L shows 50% or less of control values)

Q: What about the “Test G (control value class)” value [2, 12] of the same compound?
A: L (L shows 50% or less of control values)

Q: What about the “Test E (control value class)” value [3, 13] of the same compound?
A: L (L shows 50% or less of control values)

Q: And the “Test C (control value class)” value ([4]; 250 ppm spray)?
A: L (L shows 50% or less of control values)

Q: And the “Test B (control value class)” value [5, 14]?
A: H (H shows more than 50% of control values)

Q: With `COc1ccc(Cl)c(-c2cc(Cl)c(=O)n(N)c2-c2c(F)cccc2F)c1` [Compound 423] as the compound, how does the “Test D (control value class)” value [1, 11] read?
A: L (L shows 50% or less of control values)

Q: And the “Test G (control value class)” value [2, 12]?
A: H (H shows more than 50% of control values)

Q: And the “Test E (control value class)” value [3, 13]?
A: H (H shows more than 50% of control values)

Q: And the “Test C (control value class)” value ([4]; 250 ppm spray)?
A: H (H shows more than 50% of control values)

Q: And the “Test B (control value class)” value [5, 14]?
A: H (H shows more than 50% of control values)

Q: What does the source list for `CCn1c(-c2c(F)cccc2F)c(-c2cc(OCCCOC)ccc2Cl)ccc1=O` [Compound 310]?
A: Test D control value (powdery mildew on barley) ([1]; 250 ppm spray): H (H shows more than 50% of control values); Test G control value (downy mildew on vine) ([2]; 7-10 days after inoculation): L (L shows 50% or less of control values); Test E control value (brown rust on wheat) ([3]; 250 ppm spray): H (H shows more than 50% of control values); Test C control value (Alternaria sooty spot on cabbage) ([4]; 250 ppm spray): H (H shows more than 50% of control values); Test B control value (gray mold on tomato) ([5]; 250 ppm spray): H (H shows more than 50% of control values)

Q: For `COc1cc(F)c(-c2c(-c3cc(F)c(F)cc3F)cc(Cl)c(=O)n2C)c(F)c1` [Compound 655], which “Test D (control value class, powdery mildew on barley)” value [1] is on record?
A: L (L shows 50% or less of control values)

Q: What about the “Test G (control value class, downy mildew on vine)” value [2, 15] of the same compound?
A: L (L shows 50% or less of control values)

Q: What about the “Test E (control value class, brown rust on wheat)” value [3] of the same compound?
A: H (H shows more than 50% of control values)

Q: And the “Test C (control value class, Alternaria sooty spot on cabbage)” value [4]?
A: H (H shows more than 50% of control values)

Q: What about the “Test B (control value class, gray mold on tomato)” value [5] of the same compound?
A: H (H shows more than 50% of control values)

Q: With `CCN1C(=O)CCC(c2cc(F)ccc2F)=C1c1c(F)cccc1F` [Compound 477] as the compound, how does the “Test D (control value class)” value [1, 11] read?
A: H (H shows more than 50% of control values)

Q: And the “Test G (control value class)” value [2, 12]?
A: L (L shows 50% or less of control values)

Q: And the “Test E (control value class)” value [3, 13]?
A: H (H shows more than 50% of control values)

Q: And the “Test C (control value class)” value ([4]; 250 ppm spray)?
A: H (H shows more than 50% of control values)

Q: What about the “Test B (control value class)” value [5, 14] of the same compound?
A: H (H shows more than 50% of control values)

Q: Which “Test D (control value class)” value [1, 7] does the source give for `CCOc1ccc(Cl)c(-c2cc(C)c(=O)n(CC)c2-c2c(F)cccc2F)c1` [Compound 802] here?
A: H (H shows more than 50% of control values)

Q: What about the “Test G (control value class)” value [2, 8] of the same compound?
A: H (H shows more than 50% of control values)

Q: And the “Test E (control value class)” value [3, 9]?
A: H (H shows more than 50% of control values)

Q: And the “Test C (control value class)” value ([4]; control value=100{1-(n/3)})?
A: H (H shows more than 50% of control values)

Q: What about the “Test B (control value class)” value [5, 10] of the same compound?
A: H (H shows more than 50% of control values)
